Test results reported in PMC4336329 (PLoS ONE, 2015).
Hit rate of the full screen: of about 310,000 compounds, about 2,200 (0.71%) showed an effect of 50% or more. The effect is printed as a negative number. Some of the results follow.

What follows are molecules tested against human ether-à-go-go-related gene (hERG) potassium channel (human, UniProt Q12809) (assay: primary screen, population patch clamp on CHO cells stably expressing hERG).
Sequence of human ether-à-go-go-related gene (hERG) potassium channel (Q12809 whole entry, looked up): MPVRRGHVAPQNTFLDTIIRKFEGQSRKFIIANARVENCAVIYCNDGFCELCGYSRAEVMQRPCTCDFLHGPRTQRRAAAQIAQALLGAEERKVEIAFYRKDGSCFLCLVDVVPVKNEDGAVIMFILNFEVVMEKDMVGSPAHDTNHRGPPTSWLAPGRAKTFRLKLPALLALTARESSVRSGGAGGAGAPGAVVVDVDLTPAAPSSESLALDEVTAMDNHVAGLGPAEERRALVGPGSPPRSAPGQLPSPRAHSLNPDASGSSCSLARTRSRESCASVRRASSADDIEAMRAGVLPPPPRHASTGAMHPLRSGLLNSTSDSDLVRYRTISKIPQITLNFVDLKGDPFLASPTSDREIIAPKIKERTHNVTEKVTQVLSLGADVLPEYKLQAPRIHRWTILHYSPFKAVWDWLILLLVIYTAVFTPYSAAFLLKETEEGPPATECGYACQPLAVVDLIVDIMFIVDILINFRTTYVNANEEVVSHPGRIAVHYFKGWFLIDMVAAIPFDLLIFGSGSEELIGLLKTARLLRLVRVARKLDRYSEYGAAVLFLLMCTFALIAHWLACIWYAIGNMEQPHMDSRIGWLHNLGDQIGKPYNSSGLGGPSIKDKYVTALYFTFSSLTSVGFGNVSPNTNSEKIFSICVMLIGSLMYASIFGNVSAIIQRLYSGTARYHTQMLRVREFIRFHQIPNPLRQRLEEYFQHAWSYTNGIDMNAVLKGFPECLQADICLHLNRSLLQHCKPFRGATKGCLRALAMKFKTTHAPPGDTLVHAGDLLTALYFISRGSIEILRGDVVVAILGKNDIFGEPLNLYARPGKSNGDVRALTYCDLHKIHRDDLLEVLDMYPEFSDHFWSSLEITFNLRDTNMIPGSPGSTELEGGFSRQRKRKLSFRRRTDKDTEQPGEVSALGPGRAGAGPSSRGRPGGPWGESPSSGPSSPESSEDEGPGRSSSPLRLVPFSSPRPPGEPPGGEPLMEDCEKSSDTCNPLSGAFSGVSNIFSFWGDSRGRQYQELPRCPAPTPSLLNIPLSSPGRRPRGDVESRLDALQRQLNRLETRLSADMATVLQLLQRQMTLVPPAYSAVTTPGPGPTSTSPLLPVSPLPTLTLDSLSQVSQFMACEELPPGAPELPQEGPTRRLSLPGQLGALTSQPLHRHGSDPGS

| SMILES | hERG current change (%, negative = inhibition) at 1uM [%] |
| --- | --- |
| CC(=O)c1c(C)[nH]c(C(=O)COC(=O)C2CC2)c1C | 12.2 |
| Cc1ccc(Cl)cc1N1CCN(C(=O)CN(c2ccccc2)S(=O)(=O)N(C)C)CC1 | 7.58 |
| Cc1snnc1C(=O)NC(=S)Nc1ccccc1 | 12.4 |
| O=[N+]([O-])c1ccc(Oc2cccc3cccnc23)c([N+](=O)[O-])c1 | -6.92 |
| O=C(/C=C/c1ccc(Cl)cc1)N1CCN(c2ccccn2)CC1 | -10.6 |
| CCCn1c(CN2CCN(C)CC2)nc2ccccc21 | 6.29 |
| Cc1cc(C)n2nc(C(=O)N/N=C/c3ccco3)nc2n1 | 12.1 |
| COc1ccc(OC)c(S(=O)(=O)n2cnc3cc(C)c(C)cc32)c1 | 15.1 |
| COc1ccc2nc(NC(=O)C3CCN(S(=O)(=O)c4cccs4)CC3)sc2c1 | 9.25 |
| O=C(Nc1nnc(COc2ccccc2)s1)Nc1ccccc1F | 14.6 |
| Oc1ccc(Cl)cc1CNc1cnc2ccccc2c1 | 16.4 |
| CCOc1ccc(C(=O)Oc2cc(C)[nH]c(=O)c2[N+](=O)[O-])cc1OCC | 19.6 |
| COc1ccc(C)cc1N(C(=O)c1ccccc1)c1nc2ccccc2s1 | 11.5 |
| Cc1cc(C)cc(NC(=O)Cn2nnc(C(=O)NCc3ccc4c(c3)OCO4)c2N)c1 | 14.3 |
| CC1(C)Cc2c(cnn2-c2ccccc2)C(NC(=O)c2ccoc2)C1 (stereo not drawn) | -91.7 |
| CC(=O)c1ccc(NC(=O)COC(=O)c2ccccc2N=Nc2ccc(N(C)C)cc2)cc1 | 11.2 |
| COc1ccccc1N1CCN(C2CCCN(S(=O)(=O)c3cccc(Cl)c3)C2)CC1 (stereo not drawn) | 3.58 |
| Nc1ccccc1C(=O)NCCN1CCNC1=O | 15.2 |
| COc1cccc(CN2CC(O)=C(c3nc(-c4ccc(Cl)cc4)cs3)C2=N)c1 | 1.11 |
| O=C(c1ccsc1)N1CCCC(N2CCOCC2)C1 (stereo not drawn) | 14 |
| CC(C(=O)N1CCN(c2ccc(Cl)cc2)CC1)c1ncc(C(F)(F)F)cc1Cl (stereo not drawn) | -7.58 |
| CCCCCCOc1ccc(C(CC(=O)O)C(N)=O)cc1 (stereo not drawn) | -7.35 |
| O=C(NC(=O)c1cccc(F)c1)OC[C@@H]1CCCN2CCCC[C@H]12 | -13.4 |

| SMILES | hERG current change (%, negative = inhibition) at 1uM [%] |
| --- | --- |
| O=C(NCc1cccc(Cl)c1)C1CCCO1 (stereo not drawn) | 10.4 |
| CCOC(=O)C1CCN(C/C=C/c2ccccc2[N+](=O)[O-])CC1 | -57 |
| CN(C)CCN=Cc1c(O)n(Cc2ccc3c(c2)OCO3)c(=O)c2ccccc12 | 1.28 |
| O=C(NCCCN1CCN(c2ccc(F)cc2)CC1)NC12CC3CC(CC(C3)C1)C2 | -16.4 |
| CCOC(=O)C1=C(CS(=O)(=O)c2ccc(C)c(C)c2)NC(=O)NC1c1ccc(O)cc1 (stereo not drawn) | 14.1 |
| Cc1ccc(C)c(CNC(=O)Nc2ccccc2)c1 | 18.7 |
| CCOC(=O)CSCC(=O)Nc1cc(C)ccc1C | 5.86 |
| O=C(Nc1ccccc1N1CCCC1)c1cccnc1 | -0.676 |
| COc1ccc(CCn2c(C)cc(C(=O)CN3C(=O)C(=O)N(Cc4ccco4)C3=O)c2C)cc1 | 4.85 |
| CCOc1ccc(N(CC(=O)NC2CC3CCC2C3)S(=O)(=O)c2ccccc2)cc1 (stereo not drawn) | 20.5 |
| CS(=O)(=O)c1ccc([C@@H](O)[C@@H](CO)NC(=O)C(Cl)Cl)cc1 | 7.93 |
| Cc1nnc(SCC(=O)N2CCN(C(=O)c3ccco3)CC2)n1C | 8.57 |
| Cc1cc(=O)oc2cc(OCC(=O)Nc3ccc4[nH]c(=O)[nH]c4c3)ccc12 | 11.6 |
| COc1ccc(OC)c(S(=O)(=O)N2CCC3(CC2)OCCN3S(=O)(=O)c2ccccc2)c1 | 7.55 |
| Cc1ccc(C(=O)N2CCN3C(=O)c4ccccc4C23c2ccc(Cl)cc2)cc1 (stereo not drawn) | 4.31 |
| COc1ccc(-n2nc([N+](=O)[O-])c(=NCCC3=CCCCC3)n2O)cc1 | -8.78 |
| COc1cccc2c1NC(C(=O)O)C1CC=CC21 (stereo not drawn) | 8.98 |
| N=c1c(C(=O)NC2CCCC2)cc2c(=O)n3ccccc3nc2n1CC1CCCO1 (stereo not drawn) | -94.4 |
| Cc1ccc2nc(N/C(N)=N/S(=O)(=O)c3ccc([N+](=O)[O-])cc3)nc(C)c2c1 | 1.77 |
| O=C(Cn1nc(C(=O)O)c2ccccc2c1=O)NCCC1=CCCCC1 | -2.32 |
| c1cncc(-c2nc(N3CCOCC3)c3ccccc3n2)c1 | 8.76 |
| COC(=O)CCCC1=CC2=C(c3ccccc3)C(=O)C(C)(OC(=O)C3CCCC3)C(=O)C2=CN1C(CO)CO (stereo not drawn) | 9.98 |
| COc1ccc(OC)c(C(=O)N2CCC(CCC(=O)NC3CC3)CC2)c1 | 12.7 |

| SMILES | hERG current change (%, negative = inhibition) at 1uM [%] |
| --- | --- |
| COc1ccccc1-c1cc(C(F)(F)F)nc(N2CCN(c3ccc(F)cc3)CC2)n1 | 30.7 |
| CC1Sc2ccc(S(=O)(=O)CCC(=O)N(C)Cc3ccco3)cc2NC1=O (stereo not drawn) | 8.19 |
| Cc1ccc(OCCNC(=O)CCNS(=O)(=O)c2ccc3ccccc3c2)cc1 | 12.7 |
| O=c1[nH]c(=S)[nH]nc1Cc1ccc(Cl)c(Cl)c1 | 17.4 |
| Cc1ccc(NC(=O)/C(=C\c2ccccc2)NC(=O)/C=C/c2ccccc2)cc1 | -4.35 |
| CCOc1cc(N2CCOCC2)c(OCC)cc1NC(=O)c1ccc(S(=O)(=O)N(C)C)cc1 | 10.8 |
| Cc1cc(C)c(S(=O)(=O)NCC(=O)NCc2ccco2)c(C)c1 | 7.56 |
| Cc1cc(Cl)nc(Cl)c1C(=O)N1CCOCC1 | 8.58 |
| COc1ccc(-c2ccc(-c3nnn(CC(C)=O)n3)cc2)cc1 | 5.98 |
| CC(C)OC(=O)CSc1nnc(-c2ccccn2)n1-c1ccccc1 | 1.56 |
| Cc1ccc(S(=O)(=O)Nc2ccc(-n3cnnn3)cc2)c(C)c1 | -0.244 |
| CCOc1ccccc1CN1CCN(CC2CC2)CC1CCO (stereo not drawn) | 9.15 |
| Cc1cc(/C=N/NC(=O)c2cc3ccccc3o2)c(C)n1C | 32.5 |
| CCOC(=O)c1cnc2ccc(Cl)cc2c1N1CCN(C)CC1 | -0.805 |
| CC(C)c1nc2cc3ccccc3cc2[nH]1 | 5.19 |
| Cc1occc1-c1nnc(SCC(=O)N2CCN(c3ccccc3F)CC2)n1C | 8.49 |
| O=C(Cc1cccs1)NC1CCCC1 | 12.6 |
| COc1cc(NC(=O)C2CCCO2)c(OC)cc1Cl (stereo not drawn) | 5.44 |
| CC1(C)CCC(=O)C=C1Nc1ccc(F)c(Cl)c1 | 15.5 |
| O=C(CCc1ccc(O)cc1)N1C[C@H]2C[C@@H](C1)c1cccc(=O)n1C2 | 14.1 |
| COCc1nnc(NS(=O)(=O)c2ccc([N+](=O)[O-])cc2)s1 | 0.334 |
| CC(C)NC(=S)NC(=O)c1ccc(Cl)cc1Cl | 14.6 |
| COc1ccc(C2SCC(=O)Nc3c2c(C)nn3-c2ccccc2)cc1OC (stereo not drawn) | 15.4 |

| SMILES | hERG current change (%, negative = inhibition) at 1uM [%] |
| --- | --- |
| Cc1sc2nc(CN(Cc3cccs3)C(=O)NC3CCCCC3)[nH]c(=O)c2c1C | 6.83 |
| CCOc1ccc(Oc2ccccc2NC(=O)C2=COCCO2)cc1 | 0.808 |
| NS(=O)(=O)c1ccc(CCNC(=O)CNC(=O)c2ccccc2F)cc1 | 11.3 |
| NS(=O)(=O)c1ccc(NC(=S)N2CCc3ccccc32)cc1 | 8.15 |
| S=C(Nc1ccc2cn[nH]c2c1)Nc1ccc(Cl)cc1Cl | 3.93 |
| O=C(Nc1nsc(-c2ccccc2)n1)c1ccncc1 | 13 |
| Cc1ccc2cc(C)c(SCC(=O)NCC3CCCO3)nc2c1 (stereo not drawn) | 12.7 |
| CCOC(=O)N(C)c1ccc(C(O)(C(=O)OC)C(F)(F)F)cc1 (stereo not drawn) | 18.8 |
| COc1ccc(S(=O)(=O)N2CCC(C(=O)NCCC(=O)Nc3ccc(Cl)cc3)CC2)cc1 | 8.94 |
| CS(=O)(=O)N(CC(=O)N1CCCCCC1)c1ccc(Br)cc1 | 9.5 |
| Cc1ccc(C)c(-n2c(CNC(=O)c3ccco3)nnc2SCC(=O)Nc2nnc(C)s2)c1 | 18.6 |
| Cc1ccccc1OCC(=O)N/N=C/c1sc(=O)n(Cc2cccc(C(=O)O)c2)c1Cl | 12.1 |
| CCNC(=S)N1CCN(c2nc(-c3ccc(F)cc3)cs2)CC1 | 13.7 |
| O=C1NCCCC1C(=O)N1CCCCC1 (stereo not drawn) | 11.6 |
| COc1cc(/C=N/n2cnnc2)ccc1OC(=O)N(C)C | 13.4 |
| CC(=O)N1CCN(CC(=O)Nc2c(Cl)ccc(C)c2Cl)CC1 | 10.5 |
| C/C(Cc1ccccc1)=N\NC(=O)c1cccnc1 | 11.4 |
| CC(C)(C)C(=O)COC(=O)c1cc2ccccc2cc1O | 11.7 |
| CC[C@H](C)[C@@H]1NC(=O)c2cc([N+](=O)[O-])cc(I)c2SC[C@@H](C(N)=O)NC(=O)[C@H](CCCCN)NC1=O | -6.25 |
| CC(C(=O)NCC1(c2ccccc2)CCCC1)N1CCOCC1 (stereo not drawn) | 4.66 |
| O=S1(=O)CCOCCN1Cc1ccc(Cl)cc1Cl | 3.48 |
